ALDHbr data for 26 compounds are collected here from the supplement of paper PMC11880418.

Each structure is given as a SMILES string. Counter-ions that a name gives are not always drawn. The list shows a part of the results. The data scatter; read single values as rough.

Some test systems named below: MKN45; PANC1; SUM159; T84.
Experiment in all cases: ALDHbr (CSC) cell proportion score relative to DMSO vehicle (ratio to DMSO); breast (SUM159) / gastric (MKN45) / pancreatic (PANC1) / colon cancer lines; ALDHbr cells have high ALDH activity and are rich in cancer stem cells (CSC); higher = more CSC (ALDHbr) cells remaining
What all share (settings): 10 µM; 72 h
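Further: High-content imaging of ALDEFLUOR-stained cells with Hoechst-labelled nuclei in 384-well plates, triplicate wells, scored as Z-score against 0.1% DMSO vehicle, negative meaning fewer ALDHbr cells.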

Consider `C/C=C(/C(=C/C)c1ccc(O)cc1)c1ccc(O)cc1` [Dienestrol], for which the ALDHbr turned out to be 1.16 with MKN45, 0.809 with PANC1, 0.906 in the assay on SUM159 and 1.01 in the assay on T84.
For `CNCCCC1c2ccccc2C=Cc2ccccc21` [Protriptyline hydrochloride] the same measures were 0.903, 0.914, 0.624 and 0.689.
The like results for `CCCCc1ncc(/C=C(\Cc2cccs2)C(=O)O)n1Cc1ccc(C(=O)O)cc1` [Eprosartan mesylate] were, in that order, 0.966, 1.03, 1.13 and 1.09.
For `COc1cc([C@@H]2c3cc4c(cc3[C@@H](O[C@@H]3O[C@@H]5CO[C@@H](C)O[C@H]5[C@H](O)[C@H]3O)[C@H]3COC(=O)[C@H]23)OCO4)cc(OC)c1O` [Etoposide] the same measures were 0.298, 0.77, 1.27 and 0.432.
Take `NCc1ccccc1CC(=O)N[C@@H]1C(=O)N2C(C(=O)O)=C(CSc3nnnn3CC(=O)O)CS[C@H]12` [Ceforanide]: the ALDHbr with MKN45 is 1.16; in the assay with PANC1, 0.967; with SUM159 it was 0.707; in the assay with T84 it was 0.919.
For `CC(COc1ccccc1)NC(C)C(O)c1ccc(O)cc1` (centres undefined) [Isoxsuprine hydrochloride] the same measures were 1.26, 0.761, 1.86 and 1.09.
For the compound `COCC1=C(C(=O)OC(C)OC(=O)OC(C)C)N2C(=O)[C@@H](NC(=O)/C(=N\OC)c3csc(N)n3)[C@H]2SC1` (some centres undefined) [Cefpodoxime proxetil], the ALDHbr worked out at 0.945 in the assay with MKN45, 1.01 with PANC1, 0.911 in the assay on SUM159 and 0.892 in the assay on T84.
For `C=C1c2c(Cl)ccc(O)c2C(O)=C2C(=O)[C@]3(O)C(O)=C(C(N)=O)C(=O)[C@@H](N(C)C)[C@@H]3[C@@H](O)[C@H]12.O=C(O)c1cc(S(=O)(=O)O)ccc1O` [Meclocycline sulfosalicylate] the same measures were 0.314, 0.401, 0.198 and 0.769.
The like results for `COc1ccc(CC2c3cc(OC)c(OC)cc3CC[N+]2(C)CCC(=O)OCCCCCOC(=O)CC[N+]2(C)CCc3cc(OC)c(OC)cc3C2Cc2ccc(OC)c(OC)c2)cc1OC` (centres undefined) [Atracurium besylate] were, in that order, 0.43, 0.587, 0.259 and 0.489.
The like results for `Clc1ccc(C(Cn2ccnc2)OCc2ccsc2Cl)c(Cl)c1` (centres undefined) [Tioconazole] were, in that order, 1.15, 1, 0.812 and 0.731.
On to `Cc1c(C)c2c(c(C)c1O)CCC(C)(COc1ccc(CC3SC(=O)NC3=O)cc1)O2` (centres undefined) [Troglitazone], for which the ALDHbr with MKN45 came out at 0.765; with PANC1, 0.847; in the assay with SUM159, 0.749; with T84, 0.721.
For `Nc1ccn([C@H]2CC[C@@H](CO)O2)c(=O)n1` [Zalcitabine] the same measures were 1.28, 0.937, 1.7 and 1.1.
The like results for `OCCN(CCO)c1nc(N2CCCCC2)c2nc(N(CCO)CCO)nc(N3CCCCC3)c2n1` [Dipyridamole] were, in that order, 0.661, 0.736, 0.589 and 0.977.
The like results for `Cc1cc2c(cc1S(N)(=O)=O)S(=O)(=O)CCC2` [Meticrane] were, in that order, 0.856, 0.706, 0.844 and 0.918.
For `COc1ccc2[nH]c([S+]([O-])Cc3ncc(C)c(OC)c3C)nc2c1` (centres undefined) [Omeprazole], the ALDHbr in the assay on MKN45 turned out to be 1.27; in the assay with PANC1, 0.888; in the assay with SUM159 it was 0.825; in the assay on T84, 0.791.
For `N=C(N)NCc1cccc(I)c1` [Iobenguane sulfate] the same measures were 0.94, 1.04, 1.48 and 1.13.
For `COc1ccc(C(=O)c2ccccc2O)c(O)c1` [Dioxybenzone] the same measures were 0.959, 0.912, 1.12 and 0.966.
For `CN(C)CCN(Cc1ccccc1)c1ccccn1` [Tripelennamine hydrochloride] the same measures were 1.04, 1.04, 0.947 and 0.814.
Regarding `COC(=O)CCc1ccc(OCC(O)CNC(C)C)cc1` (centres undefined) [Esmolol hydrochloride], the ALDHbr in the assay on MKN45 was 0.966; in the assay with PANC1, 0.846; in the assay on SUM159, 1.24; in the assay on T84, 0.875.
For `Clc1cccc(Cl)c1NC1=NCCN1` [Clonidine hydrochloride] the same measures were 0.969, 0.965, 0.867 and 0.912.
`CC(=O)[C@H]1CC[C@H]2[C@@H]3CC=C4C[C@@H](O)CC[C@]4(C)[C@H]3CC[C@]12C` [Pregnenolone]: the ALDHbr with MKN45 amounted to 0.79; with PANC1 it was 0.936; in the assay on SUM159 it was 1.04; in the assay with T84, 0.968.
For `CCCCOc1ccc(CC(=O)NO)cc1` [Bufexamac] the same measures were 0.442, 0.54, 1.46 and 0.651.
The like results for `Nc1nc2c(ncn2COCCO)c(=O)[nH]1` [Acyclovir] were, in that order, 1, 0.946, 1.07 and 0.809.
The like results for `Nc1ccc(C(=O)O)c(O)c1` [4-aminosalicylic acid] were, in that order, 1.09, 0.96, 0.877 and 0.925.
For the compound `NCCc1cc[nH]n1` [Betazole hydrochloride], the ALDHbr in the assay with MKN45 was determined as 1.19; in the assay with PANC1, 0.904; with SUM159, 1.04; in the assay with T84, 0.893.
The like results for `CNCC[C@@H](Oc1ccccc1C)c1ccccc1` [Tomoxetine hydrochloride] were, in that order, 1.08, 0.95, 1.18 and 0.927.
